# Not every entry of the source has a single result; some have several. The other results are left out here. An entry can have further records. For part of these data: The values listed for one entry appear to be repeats (runs, samples, wells or individuals). For part of these data: Values that stand side by side appear to be repeats (runs, samples, wells or individuals); a mean can stand among them.
# Target: T1, particulate guanylyl cyclase receptor A (pGC-A) (Homo sapiens, UniProt P16066)
# T1 construct: expressed in transfected cells; host or cells: HEK293
# T1 sequence (P16066 33-1061): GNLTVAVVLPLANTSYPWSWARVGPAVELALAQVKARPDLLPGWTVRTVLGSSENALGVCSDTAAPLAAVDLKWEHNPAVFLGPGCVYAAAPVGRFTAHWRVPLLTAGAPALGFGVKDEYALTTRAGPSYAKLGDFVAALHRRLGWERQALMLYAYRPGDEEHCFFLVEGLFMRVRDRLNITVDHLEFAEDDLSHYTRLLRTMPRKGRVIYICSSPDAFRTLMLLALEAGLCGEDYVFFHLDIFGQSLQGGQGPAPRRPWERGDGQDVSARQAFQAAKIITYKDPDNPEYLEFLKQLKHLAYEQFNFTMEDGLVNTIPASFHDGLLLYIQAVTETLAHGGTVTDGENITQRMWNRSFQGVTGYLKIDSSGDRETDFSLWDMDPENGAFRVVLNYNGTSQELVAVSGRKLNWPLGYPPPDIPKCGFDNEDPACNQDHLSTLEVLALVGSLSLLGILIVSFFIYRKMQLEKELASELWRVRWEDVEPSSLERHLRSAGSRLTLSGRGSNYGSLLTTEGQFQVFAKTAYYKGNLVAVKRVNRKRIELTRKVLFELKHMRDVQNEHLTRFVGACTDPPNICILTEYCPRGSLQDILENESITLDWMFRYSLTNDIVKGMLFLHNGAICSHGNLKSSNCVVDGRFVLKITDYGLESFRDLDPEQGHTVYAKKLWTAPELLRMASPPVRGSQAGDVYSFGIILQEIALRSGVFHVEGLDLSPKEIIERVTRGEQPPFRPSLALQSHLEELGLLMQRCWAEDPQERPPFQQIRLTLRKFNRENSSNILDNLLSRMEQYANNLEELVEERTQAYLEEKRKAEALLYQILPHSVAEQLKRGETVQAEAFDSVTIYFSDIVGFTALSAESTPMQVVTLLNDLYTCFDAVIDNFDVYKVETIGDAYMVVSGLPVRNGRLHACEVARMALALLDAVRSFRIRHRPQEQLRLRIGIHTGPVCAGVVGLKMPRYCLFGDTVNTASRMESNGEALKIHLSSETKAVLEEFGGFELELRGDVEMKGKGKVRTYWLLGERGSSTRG
# T1 sequence (P01160 124-151 partner limits assumed): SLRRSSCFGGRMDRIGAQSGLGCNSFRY
# Test: cGMP production by HTRF in HEK293 cells overexpressing pGC-A, with ANP
# Format: cell-based
# Details: test compound plus EC20 concentration of ANP
# From the text: Assay: Generally, the assay monitors the production of cGMP, the second messenger generated by pGC-A, by Time-Resolved Florescence (HTRF) in HEK293 cells overexpressing the pGC-A. pGC-A suspension cells were stimulated in the presence of the test compound and an EC20 concentration of ANP. The quantity of cGMP was detected by competitive immunoassay using Eu^3+ cryptate-labeled anti-cGMP and d2-labeled cGMP and normalized to maximal amount produced by an EC80 concentration of ANP. Compound EC50 values were determined in the primary assay, in the presence or absence of ANP, to determine mode of action as positive modulators and tested for selectivity in the same assay platform but in HEK cells overexpressing the particulate guanylyl cyclase B receptor (pGC-B), of which CNP is the endogenous ligand.
# Assay details: 20 nL of 10 μM test compound in DMSO was added to columns 5-48 of 1536 well white high base screening plates (Corning, New York, NY) cells using 550 ECHO acoustic dispenser (Labcyte, San Jose, CA). Alpha-atrial natriuretic peptide (ANP) (Phoenix Pharmaceutics) was prepared as stock aliquots at 5 μM in PBS with 0.1% BSA. An approximate […] concentration of ANP ([…]) in assay buffer (HBSS containing 5 mM HEPES and 0.05% BSA) was added to columns 3-48 at a volume of 1 μL. Assay buffer only was added to column 1 and assay buffer containing a saturating concentration of ANP (5 nM) was added to column 2. HEK293 cells overexpressing GC-A were resuspended in assay media (OptimMem media containing 2% Heat-inactivated Fetal bovine serum and L-glutamine) at a density of 6×10^5 cells/mL and 2 μL were plated in screening plates (1200 cells/well) in suspension using a Bioraptr 2. Plates were spun at 1000 rpm for 1 min and incubated for 30 min at room temperature. 1.5 μL d2-labeled cGMP followed by 1.5 μL Eu^3+ cryptate-labeled anti-cGMP cGMP detection kit (CiBio; #62GM2PEC) prepared according to manufacturer's protocol were added to all wells using a Bioraptr 2 and TR-FRET signal was detected on an EnVision detector (PerkinElmer). […]
row,SMILES,EC50
1,CN1CCCC(N2CCCC(C(=O)Nc3nc4c(F)cc(F)cc4s3)C2)C1 (stereo not drawn) [compound 070],"700 nM, 1.01 µM, 100 nM [one cell]"
2,O=C(Nc1nc2c(F)cc(F)cc2[nH]1)C1CCCNC1 (stereo not drawn) [249b],22 µM and 1.4 µM [one cell]
3,CNCCN1CCCC(C(=O)Nc2nc3c(F)cc(F)cc3s2)C1 (stereo not drawn) [compound 237],390 nM and 4.6 µM [one cell]

# Reference: patent US20250092030A1, “ENHANCERS OF PARTICULATE GUANYLYL CYCLASE RECEPTOR A” (Mayo Foundation for Medical Education and Research, priority 2023, published 2025)
